The whole screen tested about 16,000 compounds, of which about 120 (0.75%) were called active. Inconclusive results (about 4%) are left out. Calls come from the whole dose curve; as a rule, active = well fitted inhibition curve with a large enough effect; inconclusive = small, poorly fitted or top-dose-only effect; inactive = no such curve, though single readings can be large or run the other way. This is one part of the list.
These compounds were tested against Rap guanine nucleotide exchange factor 3 (Homo sapiens) (UniProt O95398) (assay: Validation qHTS for antagonist of cAMP-regulated guanine nucleotide exchange factor 3 (EPAC1)). Settings: EPAC1 Rap1B-BODIPY-GDP exchange, fluorescence; series mostly up to 150 µM; activity change, negative = inhibition: at the top concentration.
Sequence of UniProt O95398 (O95398 whole entry, looked up): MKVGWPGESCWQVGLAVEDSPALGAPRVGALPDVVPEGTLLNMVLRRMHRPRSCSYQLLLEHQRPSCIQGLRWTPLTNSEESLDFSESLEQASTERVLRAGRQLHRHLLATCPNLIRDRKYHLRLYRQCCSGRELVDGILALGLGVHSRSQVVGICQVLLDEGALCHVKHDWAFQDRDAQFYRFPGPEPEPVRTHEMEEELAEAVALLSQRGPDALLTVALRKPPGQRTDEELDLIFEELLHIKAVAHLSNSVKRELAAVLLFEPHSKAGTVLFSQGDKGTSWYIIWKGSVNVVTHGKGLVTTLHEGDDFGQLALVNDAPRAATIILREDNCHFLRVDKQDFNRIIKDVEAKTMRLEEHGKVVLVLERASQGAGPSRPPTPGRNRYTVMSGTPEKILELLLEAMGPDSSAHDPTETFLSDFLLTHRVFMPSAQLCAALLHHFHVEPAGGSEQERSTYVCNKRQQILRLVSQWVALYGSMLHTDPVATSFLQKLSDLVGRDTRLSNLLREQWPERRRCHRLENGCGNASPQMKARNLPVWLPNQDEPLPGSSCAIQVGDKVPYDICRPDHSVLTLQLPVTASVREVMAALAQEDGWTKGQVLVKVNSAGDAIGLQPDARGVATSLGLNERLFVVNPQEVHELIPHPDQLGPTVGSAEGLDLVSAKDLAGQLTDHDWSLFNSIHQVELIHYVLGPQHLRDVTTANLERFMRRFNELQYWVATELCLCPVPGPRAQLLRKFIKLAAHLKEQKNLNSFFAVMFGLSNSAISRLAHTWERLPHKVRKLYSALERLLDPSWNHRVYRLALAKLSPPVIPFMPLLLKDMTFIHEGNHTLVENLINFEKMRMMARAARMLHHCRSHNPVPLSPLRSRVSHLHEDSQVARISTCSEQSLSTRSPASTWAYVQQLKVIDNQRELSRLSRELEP
Summary of the method: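 EPAC1 (100 nM) mixed with 250 nM RAP1B-BODIPY-GDP and 50 uM GDP; compounds in concentration series, 5 min at room temperature. Fluorescence (ex 480/em 540 nm) read every 5 min for 30 min; normalized to ATA control and DMSO.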
Note: nearly all actives have a fitted effect of over 75% in size.

Activity change, negative = inhibition, inactive:
c1ccc(-c2ccc(C(c3ccccc3)n3ccnc3)cc2)cc1 (stereo not given) -11.3%
Cc1ccc(S(=O)(=O)NCc2ccccc2)cc1 -1.88%
O=C(O)/C=C/C(O)c1ccc(Cl)cc1 (stereo not given)
C[C@]12CCC(=O)C=C1CC[C@@H]1[C@@H]2CC[C@@]2(C)[C@H]1CC[C@]2(O)C(=O)CO
c1ccc(C(c2ccccc2)N2CCCC3(CCNCC3)C2)cc1 16.4%
COC(=O)C1=C(C)NC(C)=C(C(=O)OC(C)(C)CN(C)CCC(c2ccccc2)c2ccccc2)C1c1cccc([N+](=O)[O-])c1 (stereo not given)
CC(C)Cc1nc2cc(NS(=O)(=O)N(C)C)cc(C(=O)N3CCN(c4ccccc4)CC3)c2n1C -4.51%
COc1cc(/C=C/C(=O)/C=C(O)/C=C/c2ccc(O)c(OC)c2)ccc1O
Nc1nc2c(ncn2C2OC(COC(=O)c3ccccc3)C(OC(=O)c3ccccc3)C2OC(=O)c2ccccc2)c(=O)[nH]1 (stereo not given) -9.68%
Cc1cccc2c(Nc3ccc4c(c3)OCO4)nc(CN3CCC(N4CCCCC4)CC3)nc12 -3.48%
COc1ccc(-n2c(=O)c(-c3ccccc3)nc3cncnc32)cc1 10.3%
CN1CC(O)C(O)C(O)C1CO (stereo not given) 6.51% [at 75.8 µM]
COc1cccc(OC)c1CN1CCC2(CCC(CNC(=O)c3ccn(C)n3)O2)CC1 (stereo not given) 5.38%
CC(=O)N[C@H](C(=O)O)C(C)(C)SN=O -0.498% [at 75.8 µM]
N#Cc1ccc2c(c1)N(CCCN1CCC(O)CC1)c1ccccc1S2 19%
Cn1c(=O)c(CCc2ccccc2)nc2cnc(Nc3ccccc3)nc21 14.9%
CCC1(c2ccccc2)C(=O)NCNC1=O
Cc1oc(-c2ccccc2NC(=O)C2CCC2)nc1CNC(=O)c1c(F)ccc(F)c1F 8.49%
COc1cc([C@@H]2c3cc4c(cc3[C@@H](O[C@@H]3O[C@H]5CO[C@@H](C)O[C@@H]5[C@@H](O)[C@H]3O)[C@@H]3COC(=O)[C@@H]23)OCO4)cc(OC)c1O 4.04%
COc1cc(CN2c3ccc(Br)cc3C(=O)CS2(=O)=O)cc(OC)c1 11.2%
COc1cccc(Cn2c(=O)c(-c3ccc(Cl)cc3)nc3cncnc32)c1 6.41%
O=[N+]([O-])c1ccc(CSc2ncnc3c2ncn3C2OC(CO)C(O)C2O)cc1 (stereo not given) 19.3%
Clc1ccc(-n2cccc2CN2CCOc3ccc(CN4CCOCC4)cc3C2)nc1 12.8%
COc1cc(Nc2c(C#N)cnc3cc(OCCCN4CCN(C)CC4)c(OC)cc23)c(Cl)cc1Cl 14.9%
COCCNC(=O)c1cn(C2CCN(C3CCCC3)CC2)nn1 10.1%
C[C@@]12CC(=O)C3=C(CCCC3=O)N1CCc1ccccc12 4.48%
COc1ccc(CNc2ncncc2-c2ccccc2CN(C)C)c(OC)c1 -2.15%
Cc1noc(C)c1-c1cc(NC2CC2)ncn1 12.2%
O=C(NCc1ccncc1)c1cnn(-c2nccc(-c3cccs3)n2)c1C1CC1 8.39%
Oc1ccc2c(c1)OCC1c3cc4c(cc3OC21)OCO4 (stereo not given) 13.4%
COc1ccc(C)cc1N1C(=O)[C@@H]2C[C@H]1CN2Cc1cccc(OC)c1O 2.82%
c1ccc2cc(C3=NCCN3)ccc2c1 18.7%
CC(=O)NCCNc1ccnc(-c2ccccc2C)n1 -2.3%
COC(=O)C[C@H]1c2ccc(C(F)(F)F)cc2S(=O)(=O)N1Cc1ccccc1 -14.3%
Cc1cnc(-n2ncc(C(=O)NC(C)(C)CO)c2-c2cccs2)nc1-c1ccc(F)cc1 9.12%
COc1ccc(SC[C@H](Cc2ccccc2)N2CC[C@@H](NC(=O)OCc3ccccc3)CCC2=O)cc1 -8.55%
COC(=O)[C@@H]1C[C@@H](NC(=O)c2cnsn2)CN1Cc1ccc(Cl)cc1 9.41%
O=C(c1csnn1)N1CCC2(CCCN(c3ccc(-c4ccccc4)cc3)C2)CC1 17.6%
COc1ccc(-n2c(=O)cnc3cnc(N4CCNCC4)nc32)cc1 21.2%
Cc1cc(C)c2cccnc2c1O -17.1%
COc1cc2c(C=O)c3c4c(cc(OC)c(OC)c4c2cc1OC)CCN3C -21.5%
CN1CCN(c2cc(-c3ccc(N(C)C)cc3)ncn2)CC1 8.42%
CN1[C@@H]2CCC[C@@H]1CC(NC(=O)c1nn(C)c3ccccc13)C2 (stereo not given in full) 27.2%
COc1ccccc1-c1nccc(NCc2cccnc2)n1 12.8%
CC1CCN(CC[C@H]2CCCN2S(=O)(=O)c2cccc(O)c2)CC1
c1cncc(CNc2ncncc2-c2ccc3c(c2)OCO3)c1 18.5%
CC(C)C(N)C(=O)OCCOCn1cnc2c(=O)[nH]c(N)nc21 (stereo not given) 1.48%
Cc1cnc(CNc2cc(-c3c(C)noc3C)ncn2)cn1 6.48%
CC(=O)N1CCC2(CCCN(C(=O)Nc3cccc(F)c3)C2)CC1 8.69%
COc1ccccc1-c1nc(NC2CC2)c2ccccc2n1 3.26%

Reference: PubChem BioAssay AID1645882 (National Center for Advancing Translational Sciences (NCATS), 2021)
